Data from PubChem BioAssay AID485294 (National Center for Advancing Translational Sciences (NCATS), 2010).
About 150 (0.041%) of roughly 370,000 compounds were called active. This list was built around the results that the source calls inconclusive (neither active nor inactive); the mix of calls is not that of the screen. Calls come from the whole dose curve; as a rule, active = well fitted inhibition curve with a large enough effect; inconclusive = small, poorly fitted or top-dose-only effect; inactive = flat fitted curve, though single readings scatter. Potencies of inconclusive entries are left out as doubtful fits.

These molecules were tested against Beta-lactamase (Escherichia coli (strain K12)) (UniProt P00811) (assay: qHTS Inhibitors of AmpC Beta-Lactamase (assay with detergent)). Settings: AmpC hydrolysis of nitrocefin, absorbance 480 nm, 0.01% Triton; activity change, negative = inhibition: at 114 µM (top of the series).
In short: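 20 mM phosphate pH 7.0 + 0.01% (detergent screen) or 0.0001% Triton X-100; 5.3 nM AmpC reagent; cpd preinc 15 min RT; nitrocefin (800 uM stock) to start; A480 q20 s × 4 min; Activity was normalised to no-enzyme and no-compound control wells.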
Note: nearly all actives have a fitted effect of over 25% in size.
Potency is the fitted concentration of half-maximal effect; tags give direction and shape of the fitted curve.
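Throughout, for activity change, negative = inhibition: 0% = no-compound wells and -100% = no-enzyme wells.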

Chain of UniProt P00811 (P00811 whole entry, looked up): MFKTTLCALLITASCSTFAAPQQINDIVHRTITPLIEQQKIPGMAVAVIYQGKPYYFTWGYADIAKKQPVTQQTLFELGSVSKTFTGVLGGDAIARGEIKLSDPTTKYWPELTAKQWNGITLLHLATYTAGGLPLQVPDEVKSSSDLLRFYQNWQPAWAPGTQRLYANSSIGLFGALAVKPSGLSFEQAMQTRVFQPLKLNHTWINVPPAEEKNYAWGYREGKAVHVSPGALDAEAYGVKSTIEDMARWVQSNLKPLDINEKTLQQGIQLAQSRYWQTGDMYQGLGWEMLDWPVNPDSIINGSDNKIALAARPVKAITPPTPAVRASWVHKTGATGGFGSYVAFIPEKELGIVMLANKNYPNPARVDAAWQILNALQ

Question: For `O=C(NCc1ccc(F)cc1)C1(S(=O)(=O)c2ccc(Cl)cc2)CC1`, which Potency is on record?
Answer: Its Potency is inconclusive [inhibitor, partial curve, poor fit].

Question: How did the “activity change, negative = inhibition” value turn out when `COC(=O)c1sccc1S(=O)(=O)N1CCN(c2ccc(C(C)=O)cc2)CC1` was run?
Answer: The value was inactive: -4.33%.

Question: With `COc1ccc(Cl)cc1NC(=O)Cn1nnc(C(=O)NCc2ccc3c(c2)OCO3)c1N` as the molecule, how does the Potency read?
Answer: Its Potency is inconclusive [inhibitor, full curve].

Question: `N#CC(C(=O)OC1CCCCC1)c1nc2ccccc2nc1N1CCCCC1` (stereo unspecified) was tested. Which Potency did it give?
Answer: Its Potency is inconclusive [inhibitor, full curve, poor fit].

Question: For `Cc1csc(NC(=O)C2CC(=O)N(Cc3ccco3)C2)n1` (stereo unspecified), which “activity change, negative = inhibition” value is on record?
Answer: The value was inactive: 1.75%.

Question: How did the “activity change, negative = inhibition” value turn out when `COc1cc(O)c(C(CCN2CCCC2)c2ccc(N(C)C)cc2)c(OC)c1` (stereo unspecified) was run?
Answer: The value was inactive: 1.69%.

Question: With `O=C(CSC(=S)N1CCCC1)c1ccccc1` as the molecule, how does the “activity change, negative = inhibition” value read?
Answer: Its value is inactive: 1.93%.

Question: `N#CC1(c2nc3ccccc3[nH]2)CC1c1ccc2c(c1)OCO2` (stereo unspecified) was tested. Which “activity change, negative = inhibition” value did it give?
Answer: The value was inactive: -3.37%.

Question: How did the Potency turn out when `COc1ccccc1N1CCN(C(=O)CCCCn2c(=O)[nH]c3ccsc3c2=O)CC1` was run?
Answer: Its Potency is inconclusive [inhibitor, partial curve, poor fit].

Question: For `O=C(/C=C/c1ccc2c(c1)OCO2)NCC1CCCO1` (stereo unspecified), which “activity change, negative = inhibition” value is on record?
Answer: The value was inactive: 2.79%.

Question: How did the Potency turn out when `Cc1onc(-c2ccccc2)c1C(=O)OCC(=O)N(CC(C)C)c1c(N)n(Cc2ccccc2)c(=O)[nH]c1=O` was run?
Answer: Its Potency is inconclusive [inhibitor, full curve, poor fit].

Question: Which “activity change, negative = inhibition” value does the source give for `COc1ccc(NCc2cc3cc4c(cc3n(CC(=O)Nc3ccccc3)c2=O)OCO4)cc1` here?
Answer: The value was inactive: 18.1%.

Question: Which Potency does the source give for `CC1(C)N=C(/C=N/O)CN1O` here?
Answer: The Potency was inconclusive [inhibitor, partial curve, poor fit].

Question: Which Potency does the source give for `NC(=O)COC(=O)CCSc1ccc(Cl)cc1` here?
Answer: Its Potency is inconclusive [inhibitor, full curve, poor fit].

Question: How did the Potency turn out when `O=P(O)(c1ccc(Cl)cc1)c1ccc(Cl)cc1` was run?
Answer: Its Potency is inconclusive [inhibitor, partial curve, poor fit].

Question: For `O=C(NC(=S)Nc1cccc(Cl)c1N1CCCCC1)c1cccs1`, which Potency is on record?
Answer: Its Potency is inconclusive [inhibitor, partial curve, poor fit].

Question: `CC(=O)c1ccc(N2C(=O)[C@@H]3[C@H](C2=O)[C@H]2c4ccccc4C=NN2[C@@H]3C(C)=O)cc1` was tested. Which “activity change, negative = inhibition” value did it give?
Answer: Its value is inactive: -8.15%.

Question: How did the “activity change, negative = inhibition” value turn out when `COc1ccc(OCC(=O)Nc2nc(-c3ccc(Br)cc3)ns2)cc1` was run?
Answer: Its value is inactive: 8.67%.

Question: `O=C(CSc1cccc(C(F)(F)F)c1)N1CCN(S(=O)(=O)c2ccccc2)CC1` was tested. Which Potency did it give?
Answer: Its Potency is inconclusive [inhibitor, partial curve, poor fit].

Question: `COc1ccc(NC(=O)NCc2c(-n3cccc3)sc3c2CCCC3)c(OC)c1` was tested. Which “activity change, negative = inhibition” value did it give?
Answer: The value was inactive: 21.3%.

Question: With `COc1ccc(C2CC(c3ccccc3)=NN2C(=O)COC(=O)c2cnc(Cl)c(Cl)c2)cc1` (stereo unspecified) as the molecule, how does the Potency read?
Answer: The Potency was inconclusive [inhibitor, full curve, poor fit].

Question: For `COc1ccccc1CN(Cc1ccco1)c1cnc(S(C)(=O)=O)nc1C(=O)Nc1ccccc1Cl`, which “activity change, negative = inhibition” value is on record?
Answer: The value was inactive: 1.61%.

Question: For `COc1ccc(O)c(/C=C(\C#N)C(=O)Nc2cccnc2)c1`, which Potency is on record?
Answer: The Potency was inconclusive [inhibitor, single point].

Question: With `C=COC(=O)CSc1nc(-c2cccs2)ccc1C#N` as the molecule, how does the Potency read?
Answer: The Potency was inconclusive [inhibitor, full curve, poor fit].

Question: Which “activity change, negative = inhibition” value does the source give for `O=C(CCCn1c(=O)[nH]c2ccsc2c1=O)N1CCN(c2cccc(C(F)(F)F)c2)CC1` here?
Answer: Its value is inactive: 3.8%.

Question: With `CCn1cc(C(=O)N2CCc3ccccc32)c(=O)c2cc(S(=O)(=O)N3CC(C)CC(C)C3)ccc21` (stereo unspecified) as the molecule, how does the Potency read?
Answer: Its Potency is inconclusive [inhibitor, partial curve, poor fit].

Question: Which “activity change, negative = inhibition” value does the source give for `O=C(Nc1cc2c(cc1Cl)OCCCO2)c1ccccc1` here?
Answer: The value was inactive: -2.47%.

Question: How did the Potency turn out when `COC(=O)c1[nH]c2ccccc2c1CN1CCOCC1` was run?
Answer: The Potency was inconclusive [inhibitor, partial curve].

Question: With `Cn1c(=O)c(C(=O)COC(=O)c2cc(-c3ccccc3)nc3ccccc23)c(N)n(Cc2ccccc2)c1=O` as the molecule, how does the Potency read?
Answer: The Potency was inconclusive [inhibitor, full curve].

Question: With `Cn1ccc(C(=O)N/N=C/c2cccnc2)n1` as the molecule, how does the “activity change, negative = inhibition” value read?
Answer: Its value is inactive: -8.94%.

Question: Which Potency does the source give for `COc1ccccc1NC(c1cccnc1)c1ccc2cccnc2c1O` (stereo unspecified) here?
Answer: Its Potency is inconclusive [inhibitor, full curve, poor fit].

Question: How did the “activity change, negative = inhibition” value turn out when `CCCN(CC1CC1)C(=O)CCc1nnc(CCc2c[nH]c3ccccc23)o1` was run?
Answer: Its value is inactive: -7.36%.

Question: `O=C(Nc1nccs1)c1cccc(NC(=O)C2CC2)c1` was tested. Which “activity change, negative = inhibition” value did it give?
Answer: Its value is inactive: 3.59%.

Question: With `Clc1ccc(N=c2ssnc2Cl)cc1` as the molecule, how does the “activity change, negative = inhibition” value read?
Answer: Its value is inactive: -14.9%.

Question: With `CCc1cnc2c(c1SCC(=O)Nc1ccc(OC)c(OC)c1)c(=O)n(C)c(=O)n2C` as the molecule, how does the “activity change, negative = inhibition” value read?
Answer: The value was inactive: 2.33%.

Question: For `CC1(C)C(c2ccco2)=[N+]([O-])C2(CCCCC2=O)N1O` (stereo unspecified), which Potency is on record?
Answer: The Potency was inconclusive [inhibitor, single point].

Question: How did the Potency turn out when `CC1(C)CC(=O)C(C=NCc2ccccn2)=C(O)C1` was run?
Answer: Its Potency is inconclusive [inhibitor, full curve, poor fit].

Question: For `COc1ccc(-c2nnc(C3CCN(S(=O)(=O)c4ccccc4)CC3)o2)cc1`, which Potency is on record?
Answer: The Potency was inconclusive [inhibitor, partial curve, poor fit].

Question: With `Cc1ccc(-n2c(SCC(=O)N(C)C3CCS(=O)(=O)C3)nc3ccccc3c2=O)cc1` (stereo unspecified) as the molecule, how does the Potency read?
Answer: The Potency was inconclusive [inhibitor, partial curve, poor fit].

Question: With `O=C(COC(=O)c1ccc2ccccc2c1O)Nc1ccccc1` as the molecule, how does the Potency read?
Answer: The Potency was inconclusive [inhibitor, full curve, poor fit].

Question: `O=C(NCCC1CCCCN1S(=O)(=O)c1ccc(Cl)cc1)C(=O)NCc1ccco1` (stereo unspecified) was tested. Which Potency did it give?
Answer: The Potency was inconclusive [inhibitor, partial curve].

Question: With `CC(C)(C)c1ccccc1NC(=O)CN1C(=O)NC(Cc2ccccc2)C1=O` (stereo unspecified) as the molecule, how does the “activity change, negative = inhibition” value read?
Answer: Its value is inactive: -3.01%.

Question: `Cc1ccc(OCC(=O)NNC(=S)NC(=O)C(C)(C)C)c(Br)c1` was tested. Which Potency did it give?
Answer: The Potency was inconclusive [inhibitor, full curve, poor fit].

Question: With `Cc1ccc(C2Nc3ccccc3C(=O)N2CCCN2CCOCC2)cc1` (stereo unspecified) as the molecule, how does the “activity change, negative = inhibition” value read?
Answer: Its value is inactive: 6.43%.

Question: `Nc1cc(C(=O)OCC(=O)NNC(=O)c2cccs2)ccc1Cl` was tested. Which “activity change, negative = inhibition” value did it give?
Answer: Its value is inactive: -0.747%.

Question: Which Potency does the source give for `COc1ccc(NC(=O)Cn2c(=O)n(-c3ccc(CC(=O)NCc4ccco4)cc3)c(=O)c3ccccc32)cc1` here?
Answer: The Potency was inconclusive [inhibitor, full curve, poor fit].
